The values below come from ChEMBL document CHEMBL4888484, “Replenishing the malaria drug discovery pipeline: Screening and hit evaluation of the MMV Hit Generation Library 1 (HGL1) against asexual blood stage Plasmodium falciparum ,using a nano luciferase reporter read-out” (2022).

Among all 150,000 compounds or so, about 540 (0.36%) showed an effect of 50% or more. This is one part of the list.

This experiment relates to Plasmodium falciparum. The experiment in a line: Primary screen in NF54 nanoGlo assay, in single point, at 2uM, 72h; a lower Z score goes with more inhibition. It counts as functional, Erythrocyte. The following applies: timepoint 72 hour.
Consider `O=C1NC2(CCN(C(=O)c3ccc(F)cc3)CC2)Nc2cc(F)c(F)cc21`, for which the % Inhibition (in general, the relative decrease from the control value, in per cent) turned out to be 3% and the Z score was -0.54.
Taken in the same sequence, the figures for `CN(Cc1ccc2c(c1)OCO2)c1ncccc1C(N)=O` were 1% and -0.24.
For `COc1cccc(C2CN(Cc3ccc(Cl)cc3)CC2CN(CC(C)C)C(=O)C(C)C)c1` (configuration not stated), in that order: -17% and 1.63.
For `O=S1(=O)CCC(CNC(CC2CCC2)c2ccccc2)C1` (configuration not stated), in that order: 1% and -0.09.
In the case of `FC(F)(F)c1cccc(-c2c[nH]c([C@@H]3CCCN3Cc3nnc(-c4ccccc4)o3)n2)c1`, the “% Inhibition” value is listed as -4% and the Z score worked out at 0.42.
In the case of `COCC(=O)N(Cc1ccc(C)cc1)c1cccc(CC(=O)N(C)Cc2ccco2)c1`, the “% Inhibition” value is reported as -18% and the Z score was determined as 2.45.
Taken in the same sequence, the figures for `COC(=O)C[C@](C)(NC(=O)Cc1csc(C(C)C)n1)c1ccncc1` were -7% and 0.83.
Taken in the same sequence, the figures for `CCn1ncc(C(=O)N2CC(=O)N3C[C@@H](OC)C[C@H]3C2)c1C` were -3% and 0.41.
Taken in the same sequence, the figures for `CN(C(=O)c1cc2ccccc2[nH]1)C1CCCC1` were 28% and -3.83.
As for `CN1CC2(CCC1=O)CCN(C(=O)c1cc(-c3ccccc3F)n[nH]1)CC2`, the “% Inhibition” value was -2% and the Z score was found to be 0.46.
For the compound `O=C1C2CCCC1CC(C(=O)N1CCCc3ccccc31)C2` (configuration not stated), the “% Inhibition” value is -6% and the Z score is 1.14.
On to `Cc1ccc(N(C)C2CCN(C(=O)C3CC3c3ccco3)CC2)nn1` (configuration not stated), for which the “% Inhibition” value worked out at 4% and the Z score was -0.74.
For `N#Cc1cc(C(=O)N2CCC[C@H]2Cn2cc(C3CC3)nn2)ccc1F`, in that order: -12% and 1.32.
Taken in the same sequence, the figures for `Cn1c(C(F)(F)F)nn(C2CCN(CC#N)CC2)c1=O` were 6% and -0.67.
With `O=C(NCc1cc[nH]n1)c1ccc(-c2ccco2)[nH]c1=O`, the “% Inhibition” value is given as -9% and the Z score was 1.06.
For `COCn1nc(C)c(S(=O)(=O)N2CC=C(C(C)(C)C)CC2)c1C`, in that order: 0% and 0.03.
For `O=S1(=O)CCC[C@@]2(C(F)(F)F)CN(CC3(O)CCC3)C[C@H]21`, in that order: -11% and 2.02.
Taken in the same sequence, the figures for `Cc1ccc(-c2nc(C(=O)NCCc3ccc(Cl)cc3)cs2)n1C` were -16% and 1.86.
`Cn1c(N2CCC[C@H]2C(=O)NC2CC2)nc2ccccc21`: the “% Inhibition” value was -8% and the Z score came out at 0.91.
For `CCOC(=O)N1CCCC[C@H](NC2CCN(c3ccc(F)c(F)c3)CC2)C1`, in that order: 4% and -0.83.
For `CC1CCc2c(cnc3c(C(=O)NC4CCCC(C)C4C)cnn23)C1` (configuration not stated), in that order: 0% and 0.01.
Taken in the same sequence, the figures for `CCn1nc(CC(N)=O)nc1-c1ccc(N)nc1` were -3% and 0.55.
Regarding `COc1ccc(-c2nc3c([nH]2)CCN(C(=O)CC[C@@H]2NC(=O)NC2=O)C3)cn1`, the “% Inhibition” value is reported as -6% and the Z score is on record as 1.11.
For `CCCCn1nc(C)nc1CCC(=O)c1ccccc1`, in that order: 7% and -0.67.
Taken in the same sequence, the figures for `O=C(NC1CC1)c1ccccc1NCc1c(F)cccc1Cl` were -9% and 1.41.
For the compound `CCC1(CC)NC(=O)N(CC(=O)N2CC(O)CC2c2ccccc2)C1=O` (configuration not stated), the “% Inhibition” value is on record as -7% and the Z score turned out to be 1.07.
For `Cc1cccc(NC(=O)CCN2CCS(=O)(=O)CC2)c1C`, in that order: -11% and 1.92.
Taken in the same sequence, the figures for `CN(C(=O)CCS(C)(=O)=O)c1cc(Cl)cc(Cl)c1` were -11% and 1.76.
Consider `Cc1nn(C)c(Cl)c1S(=O)(=O)N1CCC[C@H](C(=O)c2ccc3c(c2)OCO3)C1`, for which the “% Inhibition” value is -13% and the Z score was found to be 1.39.
For `O=C(c1nc2ccccc2[nH]1)N1CCc2[nH]c(-c3cccnc3)nc2C1`, the “% Inhibition” value was -10% and the Z score stood at 0.9.
Consider `CCC(C)NC(=O)[C@H](Cc1c[nH]c2ccccc12)NC(=O)OCc1ccccc1` (some centres not stated), for which the “% Inhibition” value is on record as -7% and the Z score came out at 1.08.
Taken in the same sequence, the figures for `CC[C@H]1[C@H](NC(=O)c2cccc(N3CCS(=O)(=O)CC3)c2)[C@H]2CCO[C@H]21` were 3% and -0.47.
Take `COc1ccc(Cn2c(C)cc(O)c([C@H](c3ccccn3)N3CCN(c4ccccc4)CC3)c2=O)cc1`: the “% Inhibition” value is on record as -4% and the Z score is recorded as 0.58.
For `CCC1C(c2ccc(C)cc2)CCN1C(=O)CNC` (configuration not stated), in that order: -2% and 0.17.
Taken in the same sequence, the figures for `COc1ccc(CCC(=O)Nc2cc(-c3ccsc3)no2)cc1` were -4% and 0.41.
Taken in the same sequence, the figures for `CCCn1ncc(C(=O)NCc2csc(N3CCCC3)n2)c1C` were -3% and 0.56.
On to `O=C(c1cccc(-c2cnccn2)c1)N(Cc1cccnc1)C1CCCCC1`, for which the “% Inhibition” value is recorded as -5% and the Z score was 0.88.
On to `C[C@]1(C(=O)O)CCN(C(=O)c2ccc(-c3ccccc3F)o2)C1`, for which the “% Inhibition” value is recorded as -5% and the Z score was 0.96.
Taken in the same sequence, the figures for `COc1cccc(NC(=O)Cn2c(C)cc3nc4n(c(=O)c32)CCC4)c1` were 0% and 0.01.
Taken in the same sequence, the figures for `O=C(NCCN1CCN(C2Cc3ccccc3C2O)CC1)C1CCC1` (configuration not stated) were -18% and 2.27.
Taken in the same sequence, the figures for `CCC[C@@]1(C2CCN(C(=O)c3cccc(Cl)c3F)CC2)NC(=O)N(CCc2cccs2)C1=O` were 6% and -0.7.
